# Test results from PubChem BioAssay AID504845 (National Center for Advancing Translational Sciences (NCATS), 2011).
# Where “and” joins values, the source holds several entries; their conditions need not be identical. Identical values can stand only once. Hit rate of the full screen: of about 390,000 compounds, about 150 (0.038%) were called active. Inconclusive means that the source gave no clear call. Such entries were picked first, then a sample of the others. The call rests on the fitted dose curve; in most records, active means well fitted inhibition curve with a large enough effect; inconclusive means small, poorly fitted or top-dose-only effect; inactive means no such curve, though single readings can be large or run the other way. Where the call is inconclusive, the potency comes from a doubtful curve fit. More than one record can exist for a structure, and the calls need not agree.
# Target: Regulator of G-protein signaling 4 (Homo sapiens) (UniProt P49798)
# Assay: Inhibitors of Regulator of G Protein Signaling (RGS) 4: qHTS; further: nearly all actives have a fitted effect of over 75% in size
# Conditions: Transcreener GDP fluorescence polarization, RGS4-accelerated GTP hydrolysis; series mostly up to 114 µM
# Outline: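 MLSMR compounds (23 nl, pin-transferred) preincubated 10 min at room temperature with a 500nM (2x) first reagent, then RGS4 at 900nM (2x) plus Transcreener GDP mix added; fluorescence polarization (620/688 nm) read before and after 90 min at 30 °C.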
# Potency means the concentration at half of the fitted maximal effect; tags describe the fitted curve by direction and shape.
# Chain of UniProt P49798 (P49798 whole entry, looked up): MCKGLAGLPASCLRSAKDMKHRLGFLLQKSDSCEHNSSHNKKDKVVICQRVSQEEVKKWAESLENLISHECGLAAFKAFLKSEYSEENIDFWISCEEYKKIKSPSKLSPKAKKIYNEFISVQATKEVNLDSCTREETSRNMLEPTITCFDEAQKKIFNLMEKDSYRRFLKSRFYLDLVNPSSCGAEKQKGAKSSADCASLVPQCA
row,SMILES,Potency
1,O=C1NC(=O)N(CCc2ccc(F)cc2)C(=O)/C1=C\C=C\c1ccccc1,inactive
2,COc1ccc(OC)c(N2C(=O)NC(=O)/C(=C/c3ccc([N+](=O)[O-])s3)C2=O)c1,"inconclusive: 31.6 µM [inhibitor, full curve, poor fit]"
3,O=c1[nH]c(=S)[nH]c(O)c1/C=C1\C=Nc2ccccc21,"inconclusive: 31.6 µM [inhibitor, full curve, poor fit]"
4,S=C(S)N1CCCC1,inactive and active: 5.32 µM
5,NC(N)=NC(=O)c1nc(Cl)c(N)nc1N,"inconclusive: 15 µM [inhibitor, single point]"
6,Cn1ccnc1P(=S)(c1nccn1C)N1CCOCC1,"inconclusive: 79.4 µM [inhibitor, partial curve, poor fit]"
7,Cc1nn(CCC#N)c2c1P(=S)(N1CCCC1)OC(c1ccc(F)cc1)=N2 (stereo unspecified),"inconclusive: 17.8 µM [inhibitor, full curve, poor fit]"
8,N[C@@H](Cn1oc(=O)[nH]c1=O)C(=O)O,"inconclusive: 0.947 µM [inhibitor, partial curve, poor fit]"
9,CN1CCN(c2nc([N+](=O)[O-])nn2C)CC1,"inconclusive: 89.1 µM [inhibitor, single point]"
10,CN1C(=O)C(=Cc2ccccc2OCc2ccccc2Cl)C(=O)N(C)C1=O,"inconclusive: 50.1 µM [inhibitor, partial curve, poor fit]"
11,COc1ccc(CN2C(=O)NC(=O)/C(=C/c3ccc(OC)c(OC)c3OC)C2=O)cc1,"inconclusive: 56.2 µM [inhibitor, partial curve, poor fit]"
12,COc1ccc(C(=O)C2CCCN(Cc3ccc(C)s3)C2)c(OC)c1 (stereo unspecified),"inconclusive: 100 µM [inhibitor, single point]"
13,NC(=O)c1ccc(N=Cc2c(O)n(Cc3ccco3)c(=O)[nH]c2=O)cc1,"inconclusive: 56.2 µM [inhibitor, partial curve, poor fit]"
14,O=C(NC1CCCCC1)Oc1cc2oc(=O)sc2cc1Cl,"inconclusive: 56.2 µM [inhibitor, partial curve, poor fit]"
15,CC(C)c1ccc(N2C(=O)NC(=O)/C(=C/c3cnc(-c4ccccc4)nc3)C2=O)cc1,"inconclusive: 50.1 µM [inhibitor, partial curve, poor fit]"
16,COc1cc(C(=O)OC2C[C@H]3CC[C@@H](C2)N3)ccc1O (stereo partly specified),inactive
17,C[C@H](NC[C@H](O)CP(=O)(O)CC1CCCCC1)c1ccc(Cl)c(Cl)c1,"inconclusive: 752 nM [inhibitor, partial curve, poor fit] and inconclusive: 1.06 µM [inhibitor, full curve, poor fit]"
18,Cc1ccc(N2C(=O)/C(=C/c3ccc(CN(CCC#N)S(C)(=O)=O)o3)C(=O)NC2=S)cc1,"inconclusive: 31.6 µM [inhibitor, full curve, poor fit]"

row,SMILES,Potency
1,CCOc1ccc2nc(NC(=O)c3cccn(Cc4ccccc4)c3=O)sc2c1,inactive
2,c1ccc(-c2cc(-c3ccccc3)[n+](-c3ccccc3)c(-c3ccccc3)c2)cc1,inactive
3,CCOC(=O)c1ncn2c1CN(C)C(=O)c1cc(F)ccc1-2,"inconclusive: 0.006 µM [inhibitor, full curve, poor fit]"
4,C=CCN1C(=O)NC(=O)/C(=C/c2ccc(OC)c(CSc3ccccn3)c2)C1=O,"inconclusive: 50.1 µM [inhibitor, partial curve, poor fit]"
5,C=CCc1cc(C=C2C(=O)NC(=O)NC2=O)cc(OC)c1OCc1ccc(C(=O)O)cc1,"inconclusive: 28.2 µM [inhibitor, full curve, poor fit]"
6,CCOc1ccccc1N1C(=O)NC(=O)/C(=C/c2ccc3c4c(cccc24)CC3)C1=O,"inconclusive: 31.6 µM [inhibitor, full curve, poor fit]"
7,Cc1cccn2c(=O)c(/C=C(\C#N)c3nc4ccccc4s3)c(Oc3ccc(F)cc3)nc12,"inconclusive: 10 µM [inhibitor, full curve, poor fit]"
8,O=C1NC(=O)N(CCC2=CCCCC2)C(=O)/C1=C/c1ccc(O)cc1,"inconclusive: 50.1 µM [inhibitor, partial curve, poor fit]"
9,O=C1NC(=O)C(=Cc2cc(Cl)ccc2OCc2ccc(C(=O)O)cc2)C(=O)N1,"inconclusive: 44.7 µM [inhibitor, partial curve, poor fit]"
10,CNCCc1c[nH]c2ccccc12,inactive
11,COc1ccc(CN2C(=O)NC(=O)/C(=C\c3cccc(OC)c3OC)C2=O)cc1,"inconclusive: 44.7 µM [inhibitor, partial curve, poor fit]"
12,CCN(CC)P(=S)(c1c(C)nc2ccccn12)c1c(C)nc2ccccn12,"inconclusive: 56.2 µM [inhibitor, partial curve, poor fit]"
13,CN1Cc2ccccc2[C@@H]2c3cccc4[nH]cc(c34)C[C@H]21,"inconclusive: 0.844 µM [inhibitor, partial curve, poor fit]"
14,O=C(O)CCn1cc(C=C2C(=O)NC(=O)NC2=O)c(-c2cc3ccccc3oc2=O)n1,"inconclusive: 44.7 µM [inhibitor, partial curve, poor fit]"
15,COCCCn1c(N)c(C(=O)Nc2ccccc2)c2nc3ccccc3nc21,"inconclusive: 100 µM [inhibitor, single point]"
16,COC(=O)C1=Nc2ccccc2/C1=C\c1c(O)n(-c2ccc(OC)cc2)c(=O)[nH]c1=O,"inconclusive: 20 µM [inhibitor, full curve, poor fit]"
17,CC1=C(O)C(=O)C=C2C1=CC=C1C2(C)CCC2(C)C3CC(C)(C(=O)O)CCC3(C)CCC12C (stereo unspecified),"inconclusive: 11.2 µM [inhibitor, full curve, poor fit]"
18,C=CCN1C[C@@H](C)N([C@H](c2ccc(C(=O)N(CC)CC)cc2)c2cccc(OC)c2)C[C@@H]1C,"inconclusive: 42.2 µM [inhibitor, partial curve, poor fit]"
